Where “and” joins values, the source holds several entries; their conditions need not be identical. Equal entries are not always repeated. Inconclusive means that the source gave no clear call. Such entries were picked first, then a sample of the others. A potency beside an inconclusive call is a rough fit, not a confirmed value. Calls of active or inactive are those of the source. Calls follow the shape of the dose curve; as a rule, active = well fitted inhibition curve with a large enough effect in the signal ratio in the repeat runs (not every such curve was filed as active); inconclusive = weak or mixed curves, or effect the other way; inactive = no such curve, though single readings can be large or run the other way; the % refers to the signal ratio.
These compounds were tested against Androgen receptor (Homo sapiens) (UniProt P10275) (assay: qHTS assay to identify small molecule antagonists of the androgen receptor (AR) signaling pathway (AID 743035)). Conditions: HEK293 AR-UAS-bla, R1881-stimulated, beta-lactamase FRET, 16 h; activity change, negative = inhibition: at 58.5 µM (top of the series) unless noted.
From the text: National Center for Advancing Translational Sciences [NCATS]
NIH Chemical Genomics Center [NCGC]
U.S. Environmental Protection Agency [EPA]
National Institutes of Environmental Health Sciences [NIEHS]
National Toxicology Program [NTP]
U.S. Food and Drug Administration [FDA]
Androgen receptor (AR), a nuclear hormone receptor, plays a critical role in AR-dependent prostate cancer and other androgen related diseases. Endocrine disrupting chemicals (EDCs) and their interactions with steroid hormone receptors like AR may cause disruption of normal endocrine function as well as interfere with metabolic homeostasis, reproduction, developmental and behavioral functions. To identify the compounds that inhibit AR signaling, GeneBLAzer AR-UAS-bla-GripTite cell line (Invitrogen, Carlsbad, CA, USA) containing a beta-lactamase reporter gene under control of an Upstream Activator Sequence (UAS) stably integrated into HEK293 cells was used to screen the Tox21 10K compound library.
Tox21 Assay Protocol Summary:
AR-bla cells were dispensed at 2,000 cells/5 uL of assay medium per well into black wall/clear-bottom 1536-well plates using a Multidrop Combi (ThermoFisher Scientific, Waltham, MA) dispenser. After the assay plates were incubated at a 37C and 5% CO2 for 4 hr, 23 nL of compounds dissolved in DMSO, positive controls or DMSO only was transferred to the assay plate by a Pintool station (Kalypsys, San Diego, CA), followed by addition of 1 uL of agonist (R1881) in culture medium using a Bioraptr Flying Reagent Dispenser (FRD) workstation (Beckman Coulter, Indianapolis, IN, USA). The plates were incubated at a 37C and 5% CO2 for 16 h. After 1 uL of LiveBLAzerTM B/G FRET substrate was added using a Bioraptr FRD, the plates were incubated at room temperature for 2 h and fluorescence intensity was measured by an Envision plate reader (PerkinElmer, Shelton, CT).
% is scaled to controls: 0 for no effect and ±100 for the full control effect; potency is read from the fitted curve at half-maximal effect; tags tell the direction and shape of the fitted curve.

UniProt P10275, sequence (P10275 whole entry, looked up): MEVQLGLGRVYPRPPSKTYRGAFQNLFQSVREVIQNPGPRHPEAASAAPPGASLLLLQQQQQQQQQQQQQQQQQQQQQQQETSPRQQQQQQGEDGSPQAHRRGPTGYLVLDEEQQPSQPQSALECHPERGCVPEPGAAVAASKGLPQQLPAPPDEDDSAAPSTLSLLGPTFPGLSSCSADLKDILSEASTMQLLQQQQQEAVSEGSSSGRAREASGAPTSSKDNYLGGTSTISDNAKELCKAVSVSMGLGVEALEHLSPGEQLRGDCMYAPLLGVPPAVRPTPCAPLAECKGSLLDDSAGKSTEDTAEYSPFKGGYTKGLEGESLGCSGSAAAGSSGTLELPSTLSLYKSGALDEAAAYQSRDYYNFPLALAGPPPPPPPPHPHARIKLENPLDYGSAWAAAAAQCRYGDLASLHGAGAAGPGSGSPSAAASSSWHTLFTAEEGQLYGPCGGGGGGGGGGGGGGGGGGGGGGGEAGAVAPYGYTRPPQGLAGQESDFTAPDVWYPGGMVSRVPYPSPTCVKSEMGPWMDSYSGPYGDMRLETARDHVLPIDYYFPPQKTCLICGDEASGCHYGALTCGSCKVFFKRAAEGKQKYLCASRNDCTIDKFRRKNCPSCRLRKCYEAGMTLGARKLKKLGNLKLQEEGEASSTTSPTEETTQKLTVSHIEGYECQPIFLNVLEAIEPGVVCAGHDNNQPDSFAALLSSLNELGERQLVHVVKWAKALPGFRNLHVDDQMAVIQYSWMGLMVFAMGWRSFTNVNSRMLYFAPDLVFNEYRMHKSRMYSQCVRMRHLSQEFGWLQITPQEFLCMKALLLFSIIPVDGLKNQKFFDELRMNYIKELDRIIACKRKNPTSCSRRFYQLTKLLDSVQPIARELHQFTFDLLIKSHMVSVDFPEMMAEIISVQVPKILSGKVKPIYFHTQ

Q: Which Potency does the source give for COP(=S)(OC)Oc1ccc(Sc2ccc(OP(=S)(OC)OC)cc2)cc1 here?
A: inconclusive: 26.8 µM and active: 54.9 µM

Q: CCN(CC)c1c([N+](=O)[O-])cc(C(F)(F)F)c(N)c1[N+](=O)[O-] was tested. Which Potency did it give?
A: active: 43.6 µM

Q: CC1(C)CC/C(=C/c2ccc(Cl)cc2)C1(O)Cn1cncn1 (stereo not given) was tested. Which activity change, negative = inhibition did it give?
A: inconclusive: -17.6%

Q: Which activity change, negative = inhibition does the source give for CC1=C(C(=O)Nc2ccccc2)SCCO1 here?
A: inconclusive: -31.6%

Q: What about the Potency of the same compound?
A: inconclusive: 55.8 µM [rising, partial curve, poor fit]

Q: Cc1ccccc1OP(=O)(Oc1ccccc1C)Oc1ccccc1C was tested. Which Potency did it give?
A: inconclusive: 22 µM [rising, full curve, poor fit]

Q: Which Potency does the source give for Cc1ccccc1C(=O)Nc1cccc(OC(C)C)c1 here?
A: inconclusive: 19.5 µM [rising, full curve, poor fit]

Q: With COC(=O)C(C)N(C(=O)Cc1ccccc1)c1c(C)cccc1C (stereo not given) as the compound, how does the activity change, negative = inhibition read?
A: inconclusive: -46.7%

Q: How did the “activity change, negative = inhibition” value turn out when CCCCCC[N+](=O)[O-] was run?
A: inactive: 21.4% [at 78.9 µM]

Q: Which Potency does the source give for Nc1ccccc1C(=O)Oc1ccc2ccccc2c1 here?
A: inconclusive: 3.47 µM [rising, partial curve, poor fit]

Q: O=C(Cl)OCCOCCOC(=O)Cl was tested. Which activity change, negative = inhibition did it give?
A: inconclusive: 2.7%

Q: For CC1=C2C[C@H]3[C@@H](CC=C4C[C@@H](O)CC[C@@]43C)[C@@H]2CC[C@]12O[C@@H]1C[C@H](C)CN[C@H]1[C@H]2C, which activity change, negative = inhibition is on record?
A: inconclusive: 9.18%

Q: For C=CC(=O)NCNC(=O)C=C, which Potency is on record?
A: inconclusive: 54.9 µM

Q: Which results are given for Nc1c(Cl)cc([N+](=O)[O-])cc1Cl?
A: Potency: inconclusive: 17.4 µM [rising, partial curve]; activity change, negative = inhibition: inconclusive: -56.6% [at 78.9 µM]

Q: Which activity change, negative = inhibition does the source give for NS(=O)(=O)C(F)(F)C(F)(F)C(F)(F)C(F)(F)C(F)(F)C(F)(F)C(F)(F)C(F)(F)F here?
A: inconclusive: 46.3%

Q: For C#CCN1C(=O)COc2cc(F)c(N3C(=O)C4=C(CCCC4)C3=O)cc21, which activity change, negative = inhibition is on record?
A: inconclusive: -43.1%

Q: With CC(C)N(C(=O)CCl)c1ccccc1 as the compound, how does the Potency read?
A: active: 8.71 µM and active: 6.92 µM

Q: How did the Potency turn out when CCC(=O)C(CC(C)N(C)C)(c1ccccc1)c1ccccc1 (stereo not given) was run?
A: inactive

Q: For Cc1cc(Cl)ccc1OCC(=O)O, which activity change, negative = inhibition is on record?
A: inconclusive: 4.28%

Q: With COC(=O)N(C(=O)N1CO[C@@]2(C(=O)OC)Cc3cc(Cl)ccc3C2=N1)c1ccc(OC(F)(F)F)cc1 as the compound, how does the Potency read?
A: active: 6.69 µM

Q: C/C(=C\c1ccccc1)[N+](=O)[O-] was tested. Which Potency did it give?
A: inconclusive: 54.9 µM

Q: CC(=O)NC1CCSC1=O (stereo not given) was tested. Which Potency did it give?
A: inactive

Q: O=C(NC(=O)c1c(F)cccc1F)Nc1cc(Cl)c(Oc2ncc(C(F)(F)F)cc2Cl)c(Cl)c1 was tested. Which Potency did it give?
A: inconclusive: 5.26 µM [falling, full curve]

Q: For COP(=S)(OC)Oc1cc(Cl)c(Cl)cc1Cl, which Potency is on record?
A: inconclusive: 9.52 µM [rising, partial curve, poor fit] and inconclusive: 24.4 µM [rising, partial curve, poor fit]

Q: Which Potency does the source give for O=[N+]([O-])/N=C1\NCCN1Cc1ccc(Cl)nc1 here?
A: inactive

Q: How did the Potency turn out when O=C1C(Cl)C(CCl)CN1c1cccc(C(F)(F)F)c1 (stereo not given) was run?
A: active: 24.5 µM

Q: How did the Potency turn out when COP(=S)(OC)SCn1nnc2ccccc2c1=O was run?
A: inconclusive: 21.9 µM [rising, single point]

Q: For NP(N)(=O)NC(=O)c1ccc(F)cc1, which Potency is on record?
A: inconclusive: 0.0015 µM [falling, full curve, poor fit]

Q: For C[C@@H]1CC[C@H]2[C@@H](C)C(=O)O[C@@H]3O[C@@]4(C)CC[C@@H]1[C@]32OO4, which Potency is on record?
A: active: 1.69 µM

Q: C#C[C@]1(O)C=C[C@H]2[C@@H]3CCC4=CC(=O)CC[C@@H]4[C@H]3CC[C@@]21CC was tested. Which Potency did it give?
A: active: 0.19 µM

Q: How did the Potency turn out when CC(=O)/C=C/c1ccc2c(c1)OCO2 was run?
A: active: 12.4 µM

Q: Oc1c(Cl)c(Cl)cc(Cl)c1Cl was tested. Which Potency did it give?
A: inconclusive: 13.4 µM [rising, full curve]

Q: c1cc2ccc3cccc4ccc(c1)c2c34 was tested. Which Potency did it give?
A: inconclusive: 18.2 µM [rising, full curve]

Q: For CC(C)(C)N(NC(=O)c1ccc(Cl)cc1)C(=O)c1ccccc1, which activity change, negative = inhibition is on record?
A: inconclusive: -32.7%

Q: How did the Potency turn out when c1cc2c3c(cccc3c1)CC2 was run?
A: inconclusive: 54.9 µM [rising, partial curve, poor fit]

Q: O=C(CCl)Nc1ccccc1 was tested. Which Potency did it give?
A: active: 15.5 µM

Same assay, conditions: HEK293 AR-UAS-bla, R1881-stimulated, beta-lactamase FRET, 16 h; at 58.5 µM (top of the series)

Q: For Cc1cc(Cl)ccc1OCC(=O)O, which activity change, negative = inhibition is on record?
A: inactive: -0.16% and inactive: 1.34%

Q: Which activity change, negative = inhibition does the source give for CNC(=O)Oc1cccc2c1OC(C)(C)C2 here?
A: inconclusive: 26.9%

Same assay, conditions: HEK293 AR-UAS-bla, R1881-stimulated, beta-lactamase FRET, 16 h; at 78.9 µM (top of the series)

Q: Which activity change, negative = inhibition does the source give for CNC(=O)Oc1cccc2c1OC(C)(C)C2 here?
A: inconclusive: 16.4%
